Experimental data reported in patent publication US20190284241A1 (Affibody, published 2019).
Numbering of substitutions follows the chain as printed. In names and notes the source's numbering stands.

B1: ZAZ3871 (designed binder)
chain: AEAKFAKEADAAGHEIRWLPNLTFDQRVAFIHKLRDDPSQSSELLSEAKKLSESQAPKASGSLAEAKEAANAELDSYGVSDFYKRLIDKAKTVEGVEALKDAILAALPGTGGGGSAEAKFAKEADAAGHEIRWLPNLTFDQRVAFIHKLRDDPSQSSELLSEAKKLSESQAPK
notes: also called Z18634-ASGS-PP013-GT-(G4S)-Z18634
B2: ZAZ3869 (designed binder)
chain: B1 chain with A9W, D10T, A11D, G13A, A124W, D125T, A126D, G128A
notes: also called Z18632-ASGS-PP013-GT-(G4S)-Z18632
B3: ZAZ3824 (designed binder)
chain: B1 chain with F5Y, S52N, E53D, F120Y, S167N, E168D
notes: also called Z17303-ASGS-PP013-GT-(G4S)-Z17303
B4: ZAZ3870 (designed binder)
chain: B1 chain with A9W, D10Q, A11Q, G13A, A124W, D125Q, A126Q, G128A
notes: also called Z18633-ASGS-PP013-GT-(G4S)-Z18633
B5: His6-tagged Z13616 (designed binder)
chain: MGSSHHHHHHLQVDAKYAKEWQQAAHEIRWLPNLTFDQRVAFIHKLRDDPSQSSELLSEAKKLNDSQAPKVD
B6: His6-tagged Z13674 (designed binder)
chain: B5 chain with W21I, Q22E, Q23D, A25G
B7: His6-tagged Z13675 (designed binder)
chain: B5 chain with W21N, Q23A
B8: His6-tagged Z13676 (designed binder)
chain: B5 chain with W21A, Q22T, Q23S, A25G, H44V
B9: His6-tagged Z13621 (designed binder)
chain: B5 chain with W21A, Q22D, Q23A, A25G
B10: His6-tagged Z13669 (designed binder)
chain: B5 chain with W21L, Q22A, Q23S, A25G
B11: His6-tagged Z07918 (designed binder)
chain: B5 chain with W21Q, Q22D, Q23A, R47A
notes: Primary Z variant; also called His6-Z07918
B12: His6-tagged Z13663 (designed binder)
chain: B5 chain with Q23I
B13: His6-tagged Z13654 (designed binder)
chain: B5 chain with W21L, Q22E, Q23A, A25K, R47D
B14: His6-tagged Z13578 (designed binder)
chain: B5 chain with Q22T, Q23D
B15: His6-tagged Z13577 (designed binder)
chain: B5 chain with Q22H
B16: His6-tagged Z13592 (designed binder)
chain: B5 chain with W21V, Q22D, Q23I
B17: His6-tagged Z13583 (designed binder)
chain: B5 chain with W21L, Q22E, Q23K, A25G
B18: ZAZ3715 (designed binder)
chain: AEAKYAKEADAAGHEIRWLPNLTFDQRVAFIHKLRDDPSQSSELLSEAKKLNDSQAPKGAPGGGGSGGGGSGGGGSTSLAEAKEAANAELDSYGVSDFYKRLIDKAKTVEGVEALKDAILAALPGTGGGGSGGGGSGGGGSPRAEAKYAKEADAAGHEIRWLPNLTFDQRVAFIHKLRDDPSQSSELLSEAKKLNDSQAPK
notes: also called Z17303-GAP(G4S)3TS-PP013-GT(G4S)3PR-Z17303
B19: ZZ3556 (designed binder)
chain: GSSHHHHHHLQAEAKYAKEADAAGHEIRWLPNLTFDQRVAFIHKLRDDPSQSSELLSEAKKLNDSQAPKGTGGGGSGGGGSGGGGSAEAKYAKEADAAGHEIRWLPNLTFDQRVAFIHKLRDDPSQSSELLSEAKKLNDSQAPK
notes: Dimer of Z17303 without PP013, N-terminal His6 tag; also called GSS-His6-LQ-Z17303-GT(G4S)3-Z17303
B20: ZZA3716 (designed binder)
chain: AEAKYAKEADAAGHEIRWLPNLTFDQRVAFIHKLRDDPSQSSELLSEAKKLNDSQAPKGAPGGGGSGGGGSGGGGSTSAEAKYAKEADAAGHEIRWLPNLTFDQRVAFIHKLRDDPSQSSELLSEAKKLNDSQAPKGTGGGGSGGGGSGGGGSPRLAEAKEAANAELDSYGVSDFYKRLIDKAKTVEGVEALKDAILAALP
notes: also called Z17303-GAP(G4S)3TS-Z17303-GT(G4S)3PR-PP013
B21: Z11948-(G4S)-Z11948, His6-tagged (designed binder)
chain: AEAKYAKEQDAAAHEIRWLPNLTFDQRVAFIHKLADDPSQSSELLSEAKKLNDSQAPKGTGGGGSPRAEAKYAKEQDAAAHEIRWLPNLTFDQRVAFIHKLADDPSQSSELLSEAKKLNDSQAPKLEHHHHHH
B22: Z11948-(G4S)3-Z11948, His6-tagged (designed binder)
chain: AEAKYAKEQDAAAHEIRWLPNLTFDQRVAFIHKLADDPSQSSELLSEAKKLNDSQAPKGTGGGGSGGGGSGGGGSAEAKYAKEQDAAAHEIRWLPNLTFDQRVAFIHKLADDPSQSSELLSEAKKLNDSQAPKLEHHHHHH
B23: His6-tagged Z18632 (designed binder)
chain: AEAKFAKEWTDAAHEIRWLPNLTFDQRVAFIHKLRDDPSQSSELLSEAKKLSESQAPK
notes: Y5F, N52S, D53E and N-terminal AE; not shown: N-terminal His6-tag
B24: His6-tagged Z18634 (designed binder)
chain: B23 chain with W9A, T10D, D11A, A13G
notes: as for B23
B25: His6-tagged Z11948 (designed binder)
chain: MGSSHHHHHHLQAEAKYAKEQDAAAHEIRWLPNLTFDQRVAFIHKLADDPSQSSELLSEAKKLNDSQAPK
notes: Original scaffold
B26: His6-tagged Z18632 (designed binder)
chain: B23 chain
notes: not shown: N-terminal His6 tag
B27: His6-tagged Z18634 (designed binder)
chain: B23 chain with W9A, T10D, D11A, A13G
notes: as for B26

target: T1, human FcRn (Biorbyt, cat. no. orb84388) (human, UniProt P55899 24-297; P61769 21-119, limits assumed); test: ELISA, hFcRn coated, pH 6.0
T1 construct: Bought soluble protein; not biotinylated on Biacore chips and ELISA coat; also called hFcRn

Row | Binder | EC50
1 | B1 | 0.14 nM
2 | B2 | 0.3 nM
3 | B3 | 0.099 nM
4 | B4 | 0.26 nM

target: T1, human FcRn (Biorbyt, cat. no. orb84388); test: ELISA, hFcRn coated, pH 7.4
T1 sequence (P55899 24-297 limits assumed, chain 1 of 2): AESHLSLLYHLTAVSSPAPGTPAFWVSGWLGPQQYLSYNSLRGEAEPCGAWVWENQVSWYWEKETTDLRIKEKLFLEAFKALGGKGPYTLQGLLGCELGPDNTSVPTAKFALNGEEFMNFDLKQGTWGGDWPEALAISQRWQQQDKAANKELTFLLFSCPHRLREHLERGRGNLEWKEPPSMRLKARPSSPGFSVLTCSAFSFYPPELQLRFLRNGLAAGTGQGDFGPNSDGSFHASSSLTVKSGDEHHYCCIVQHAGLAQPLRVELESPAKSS
T1 sequence (P61769 21-119 limits assumed, chain 2 of 2, further chain): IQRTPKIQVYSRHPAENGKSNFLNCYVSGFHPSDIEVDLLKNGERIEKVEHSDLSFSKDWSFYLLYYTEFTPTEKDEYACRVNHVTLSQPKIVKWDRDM

Row | Binder | EC50
5 | B1 | 0.18 nM
6 | B2 | 0.73 nM
7 | B3 | 0.091 nM
8 | B4 | 0.57 nM

target: T2, cynomolgus FcRn (Biorbyt, cat. no. orb99075) (cynomolgus, UniProt Q8SPV9 24-297; Q8SPW0 21-119, limits assumed); test: SPR Biacore, cFcRn immobilised, pH 6.0
T2 construct: also called cFcRn

Row | Binder | Kd | koff | kon
9 | B5 | 11 nM |  | 
10 | B6 | 7.1 nM | 0.0059 s⁻¹ | 830000 M⁻¹ s⁻¹
11 | B7 | 11 nM |  | 
12 | B8 | 6.2 nM |  | 
13 | B9 | 7.6 nM |  | 
14 | B10 | 5.6 nM | 0.0046 s⁻¹ | 820000 M⁻¹ s⁻¹
15 | B11 | 19 nM |  | 
16 | B12 | 10 nM |  | 
17 | B13 | 15 nM | 0.013 s⁻¹ | 840000 M⁻¹ s⁻¹
18 | B14 | 21 nM | 0.011 s⁻¹ | 560000 M⁻¹ s⁻¹
19 | B15 | 5.4 nM |  | 
20 | B16 | 15 nM | 0.011 s⁻¹ | 750000 M⁻¹ s⁻¹
21 | B17 | 6.6 nM |  | 

target: T1, human FcRn (Biorbyt, cat. no. orb84388); test: SPR Biacore, hFcRn immobilised, pH 6.0

Row | Binder | Kd | koff | kon
22 | B6 | 7 nM | 0.0037 s⁻¹ | 530000 M⁻¹ s⁻¹
23 | B8 | 5.5 nM |  | 
24 | B9 | 6.8 nM |  | 
25 | B10 | 4.9 nM | 0.0028 s⁻¹ | 560000 M⁻¹ s⁻¹
26 | B12 | 8.7 nM |  | 
27 | B13 | 16 nM | 0.0095 s⁻¹ | 600000 M⁻¹ s⁻¹
28 | B14 | 18 nM | 0.0073 s⁻¹ | 410000 M⁻¹ s⁻¹
29 | B16 | 12 nM | 0.0072 s⁻¹ | 590000 M⁻¹ s⁻¹

target: T1, human FcRn (Biorbyt, cat. no. orb84388); test: AlphaLISA, blocks IgG beads binding biotin-hFcRn, pH 6.0

Row | Binder | IC50
30 | B18 | 0.17 nM
31 | B19 | 0.19 nM
32 | B20 | 0.18 nM

target: T3, human FcRn-eGFP on transduced HeLa cells (human, UniProt P55899 24-365; P16213 21-119); test: flow cytometry, hFcRn-eGFP HeLa cells, blocks Alexa647-hIgG, pH 6.0
T3 construct: Fixed, saponin-permeabilised HeLa cells; also called hFcRn-eGFP; hFcRn; not shown: eGFP at the cytoplasmic tail

Row | Binder | IC50
33 | B21 | 3.5 nM
34 | B22 | 4.5 nM
35 | B9 | 17 nM
36 | B17 | 33 nM

target: T3, human FcRn-eGFP on transduced HeLa cells; test: as above; remark: another data set of the same source
T3 sequence (P55899 24-365, chain 1 of 2): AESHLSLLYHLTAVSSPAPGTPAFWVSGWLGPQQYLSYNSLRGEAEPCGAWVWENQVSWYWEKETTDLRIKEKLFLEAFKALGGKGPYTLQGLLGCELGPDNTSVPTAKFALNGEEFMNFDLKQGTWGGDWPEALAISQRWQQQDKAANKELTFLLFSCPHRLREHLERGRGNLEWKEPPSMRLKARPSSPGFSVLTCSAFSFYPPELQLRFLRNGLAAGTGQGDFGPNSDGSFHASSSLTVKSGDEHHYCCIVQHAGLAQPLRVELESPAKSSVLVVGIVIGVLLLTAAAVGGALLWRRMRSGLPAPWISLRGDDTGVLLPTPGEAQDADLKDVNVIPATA
T3 sequence (P16213 21-119, chain 2 of 2, further chain): as the sequence (P61769 21-119 limits assumed, chain 2 of 2, further chain) above

Row | Binder | IC50
37 | B18 | 3.6 nM
38 | B1 | 4.1 nM
39 | B2 | 4.7 nM
40 | B3 | 3.8 nM
41 | B4 | 5.3 nM
42 | B23 | 84 nM
43 | B24 | 36 nM
44 | B19 | 1.9 nM
45 | B9 | 22 nM
46 | B20 | 3.5 nM

target: T1, human FcRn (Biorbyt, cat. no. orb84388); test: SPR Biacore, hFcRn immobilised; sample after 2 weeks at 37 °C (2 w)
Experimental: (§1) The His₆-tagged Z variants were further assessed in terms of preserved binding capacity to FcRn after introduction of alterations in the scaffold, as well as after having been subjected to the stability test, i.e. incubated at 37° C. for 2 weeks. Comparative kinetic constants (kₒₙ and koff) and affinities (KD) were determined using a Biacore 2000 instrument. The target protein human FcRn (Biorbyt, cat. no. orb 84388) was immobilized on the carboxylated dextran layer surface of a CM5 chip (GE Healthcare). The immobilization was performed using amine coupling chemistry according to the manufacturer's protocol and using HBS-EP as running buffer. One flow cell surface on the chip was activated and deactivated for use as blank during analyte injections. The immobilization level of hFcRn on the surface was approximately 750 RU. […] Regeneration by three pulses of HBS-EP followed by 10 min equilibration in running buffer was applied after each analyte injection. Kinetic constants were calculated from the sensorgrams using the Langmuir 1:1 model of the BiaEvaluation software 4.1 (GE Healthcare). Curves of the blank surface were subtracted from the curves of the ligand surfaces and the data from the buffer cycles were subtracted from the data of the test-sample cycles to correct for any drift in signal.

Row | Binder | Kd | koff | kon
47 | B25 | 1.8 nM | 0.00575 s⁻¹ | 3.15e+06 M⁻¹ s⁻¹

target: T1, human FcRn (Biorbyt, cat. no. orb84388); test: SPR Biacore, hFcRn immobilised; sample before the stability test (0)
Experimental: as §1

Row | Binder | Kd | koff | kon
48 | B25 | 2.9 nM | 0.00456 s⁻¹ | 1.6e+06 M⁻¹ s⁻¹

target: T4, cynomolgus FcRn (Biorbyt, cat. no. orb99075) (cynomolgus, UniProt Q8SPV9 24-297; Q8SPW0 21-119, limits assumed); test: Biacore, cFcRn immobilized (1098 RU), 90 nM His6-tagged Z variant, pH 6.0
T4 construct: Bought protein, immobilised on a CM5 chip; also called cFcRn

Row | Binder | binding result
49 | B26 | binds

target: T4, cynomolgus FcRn (Biorbyt, cat. no. …); test: as above; remark: another data set of the same source

Row | Binder | binding result
50 | B27 | binds
